From PubChem BioAssay AID624296 (National Center for Advancing Translational Sciences (NCATS), 2012)
Screen size: about 350,000 compounds; about 9,900 (2.8%) were called active. Inconclusive results, whose numbers are uncertain, are shown with a selection of clear calls. Calls follow the shape of the dose curve; as a rule, active = well fitted activation curve with a large enough effect; inconclusive = small, poorly fitted or top-dose-only effect; inactive = no such curve, though single readings can be large or run the other way. No potency is given beside an inconclusive call; the fits are too rough.

Experiment: A quantitative high throughput screen for small molecules that induce DNA re-replication in MCF 10a normal breast cells. Also: nearly all actives have a fitted effect of over 50% in size. As to activity, positive = re-replication: % of control where 0% means no effect.
Conditions: MCF 10A DNA re-replication, Hoechst nuclear intensity, 48 h; activity, positive = re-replication: at 46.1 µM (top of the series)
Potency is read from the fitted curve at half-maximal effect; tags tell the direction and shape of the fitted curve.

| Compound | Potency | activity, positive = re-replication |
| --- | --- | --- |
| CC(CCC(C)C(C)(C)C)[C@@H]1CC[C@H]2C3C[C@H](OS(O)(=S)=S)[C@H]4C[C@H](OS(O)(=S)=S)[C@@H](OS(O)(=S)=S)C[C@]4(C)[C@H]3CC[C@]12C (stereo not given in full) (tested in a mixture with another compound) | inconclusive [activator, single point] |  |
| COc1ccc(NC(=O)c2sc3nc(N4CCCC4)c4c(c3c2N)CC(C)(C)OC4)c(OC)c1 | inconclusive [activator, single point] |  |
| COc1cc(/C=N/Nc2nc3c(c(=O)n(C)c(=O)n3C)n2Cc2ccccc2)ccc1OC(=O)c1ccco1 | inconclusive [activator, partial curve] |  |
| COc1cc2nc(CN3CCN(S(=O)(=O)c4ccc(Br)cc4)CC3)[nH]c(=O)c2cc1OC | inconclusive [activator, partial curve, poor fit] |  |
| Cc1ccc(S(=O)(=O)N(C)C)cc1NC(=O)C(C)N(C)Cc1sccc1C (stereo not given) | inconclusive [activator, partial curve, poor fit] |  |
| O=C(C1CCCN(S(=O)(=O)c2cccc3nonc23)C1)N1CCN(c2cccc(Cl)c2)CC1 (stereo not given) | inconclusive [activator, full curve, poor fit] |  |
| Cc1cccc(CSCCNC(=O)c2ccc(N(C)S(=O)(=O)c3ccccc3)cc2)c1 | inconclusive [activator, single point] |  |
| C=CCn1nc2ccccc2c1OCCO | inconclusive [activator, full curve, poor fit] |  |
| O=C(Cc1cccs1)Nc1nc2ccccc2s1 | inconclusive [activator, partial curve, poor fit] |  |
| O=C(/C=C/c1ccc(Cl)cc1)N1CCN(c2ccc([N+](=O)[O-])c(N3CCOCC3)c2)CC1 |  | inactive: 2.18% |
| COc1ccccc1N1CCN(C(=O)c2ccc(COc3cccc4c3OC(C)(C)C4)cc2)CC1 | inconclusive [activator, single point] |  |
| CC(Oc1cccc2cccnc12)C(=O)N/N=C/c1ccccc1 (stereo not given) |  | inactive: 2.99% |
| COc1ccc(C2=CC3=C(Br)C(=O)C(C)(O)C(=O)C3=CO2)cc1 (stereo not given) |  | inactive: -9.46% |
| O=S(=O)(c1ccccc1)N1CCN(C(=S)NCCCN2CCOCC2)CC1 | inconclusive [activator, partial curve, poor fit] |  |
| CC1=NN(c2ccc([N+](=O)[O-])cc2)C(=O)C1 | inconclusive [activator, single point] |  |
| O=C(c1ccc(Cl)c(Cl)c1)N1CCC(=O)N(C(COCc2ccccc2)Cc2ccccc2)CC1 (stereo not given) | inconclusive [activator, single point] |  |
| COc1c(C)cc(C(=O)C2CCCN(Cc3ccc(Oc4ncccn4)cc3)C2)cc1C (stereo not given) | inconclusive [activator, single point] |  |
| COc1cc2[nH]c(=O)c(C(=O)NCc3ccc(F)cc3)c(O)c2cc1OC |  | inactive: 20.6% |
| CCN(CC)CCCNc1ccc2ncn3c4ccc(O)cc4c(=O)c1c23 | inconclusive [activator, partial curve, poor fit] |  |
| COc1ccc2oc(C)c(C(=O)c3ccc([N+](=O)[O-])cc3)c2c1 | inconclusive [activator, partial curve, poor fit] |  |

| Compound | Potency | activity, positive = re-replication |
| --- | --- | --- |
| CSCCC(NC(=O)c1ccco1)C(=O)NCc1ccc2c(c1)OCO2 (stereo not given) |  | inactive: -1.44% |
| CCOC(=O)C1(Cc2ccc(Cl)cc2)CCN(C(C)Cc2ccc(O)c(OC)c2)CC1 (stereo not given) | inconclusive [activator, partial curve, poor fit] |  |
| Cc1n[nH]c(C)c1Sc1ccccc1N=Cc1cc(Cl)cc([N+](=O)[O-])c1O | inconclusive [activator, partial curve, poor fit] |  |
| COc1ccc(NC(=O)CN(C)C(=O)/C=C/c2ccc(S(=O)(=O)N3CCCCCC3)cc2)cc1 | inconclusive [activator, single point] |  |
| Cc1ccc(SCc2ccc(C(=O)Nc3nccs3)o2)cc1 | inconclusive [activator, partial curve, poor fit] |  |
| COc1ccc(-c2ccc3oc(-c4ccc(OC)cc4)c(C#CCCO)c3c2)cc1 | inconclusive [activator, partial curve, poor fit] |  |
| O=C(NNC1CC(=O)N(c2ccc(Cl)cc2)C1=O)c1ccccn1 (stereo not given) | inconclusive [activator, single point] |  |
| OCCN(CCO)c1cc2c3ccccc3ccc2c2ccccc12 | inconclusive [activator, single point] |  |
| COc1ccc(CNCCC(c2ccc(F)cc2)c2ccc(OC(C)C)cc2)cc1OC (stereo not given) | inconclusive [activator, single point] |  |
| NNC(=O)COc1ccc(-c2n[nH]c(C(F)(F)F)c2-c2ccc(Br)cc2)c(O)c1 | active: 18.4 µM |  |
| O=C(Cn1cnc2sc(-c3ccccc3)cc2c1=O)NCc1ccccc1 | active: 4.61 µM |  |
| CS(=O)(=O)c1ccc2nc(NC(=O)Nc3cccc(Cl)c3)sc2c1 | inconclusive [activator, single point] |  |
| Cc1cccc(C(=O)Nc2nnc(Cc3c[nH]c4ccccc34)s2)c1 | inconclusive [activator, single point] |  |
| O=C(NCc1ccccc1Cl)C(=O)NCC1OCCCN1S(=O)(=O)c1cccs1 (stereo not given) | inconclusive [activator, single point] |  |
| COc1ccc(-c2cc3nc(-c4ccccc4)cc(N4CCC5(CC4)OCCO5)n3n2)cc1 |  | inactive: 20.4% |
| CC(=O)c1ccc(NC(=O)C(C)Sc2ccccn2)cc1 (stereo not given) | inconclusive [activator, single point] |  |
| N=c1c(C(=O)NC2CCCC2)cc2c(=O)n3ccccc3nc2n1CC1CCCO1 (stereo not given) | inconclusive [activator, full curve, poor fit] |  |
| Cc1cc(C)cc(NC(=O)C2CCC(CNC(=O)[C@@H]3Cc4ccccc4CN3)CC2)c1 (stereo not given in full) | inconclusive [activator, single point] |  |
| CCn1ccnc1CNCc1cn(-c2cc(C)ccc2C)nc1-c1ccccc1 |  | inactive: -0.321% |
| Cc1ccccc1NC(=O)Nc1ccccc1N1CCCCC1 | inconclusive [activator, partial curve, poor fit] |  |

| Compound | Potency | activity, positive = re-replication |
| --- | --- | --- |
| Cn1nc(C(=O)Nc2ccccc2Cl)cc1C(=O)Nc1ccccc1Cl | inconclusive [activator, full curve] |  |
| COc1ccc(NC(=O)[C@@H]2CC=C[C@@H]3CCN(Cc4ccc(Cl)c(Cl)c4)C(=O)[C@@H]32)cc1 |  | inactive: -30.6% |
| CCn1c(N)[n+](CC(=O)Nc2ccc(SC(F)F)cc2)c2ccccc21 | inconclusive [activator, single point] |  |
| CC(=O)Oc1c(Cl)cc(Cl)cc1/C=C/c1ccc2ccccc2n1 | inconclusive [activator, partial curve, poor fit] |  |
| COc1ccc(NC(=O)c2onc(C)c2Cl)cc1 | inconclusive [activator, full curve, poor fit] |  |
| COc1cccc(C(=O)/C=C/c2ccc(N3CCCCC3)c([N+](=O)[O-])c2)c1 | inconclusive [activator, single point] |  |
| CCCCCn1c(SCc2ccncc2)nc2cc(C(=O)NCc3ccco3)ccc2c1=O |  | inactive: 6.28% |
| CC(C)c1nc2cc3ccccc3cc2[nH]1 | inconclusive [activator, partial curve] |  |
| NC(=O)CC(NC(=O)Cc1cccc2ccccc12)c1ccc(N2CCN(c3ccc(F)cc3)CC2)c([N+](=O)[O-])c1 (stereo not given) | inconclusive [activator, single point] |  |
| CCCCNC(=S)N/N=C1\CCCCc2ccccc21 | inconclusive [activator, single point] |  |
| Cc1cc(NC(=O)c2cccnc2)ccc1Br | inconclusive [activator, full curve, poor fit] |  |
| Cc1ccc2nc(N(CCCN(C)C)C(=O)c3sc4ccccc4c3Cl)sc2c1 | inconclusive [activator, single point] |  |
| CC1CCN(CCOc2ccc(OCc3ccccc3)cc2)CC1 | inconclusive [activator, full curve, poor fit] |  |
| Cc1ccc(C)c(NC(=O)CSc2nc3ccc(N4C(=O)c5ccccc5C4=O)cc3s2)c1 | inconclusive [activator, single point] |  |
| COCCn1c(NC(=S)NC(=O)C23CC4CC(CC(C4)C2)C3)cc(=O)[nH]c1=O | inconclusive [activator, partial curve] |  |
| Cc1cc(OCCCCCNCCO)cc(C)c1Cl | inconclusive [activator, partial curve, poor fit] |  |
| COc1ccccc1N1CCN(C(=O)/C=C/c2ccccc2)CC1 | inconclusive [activator, full curve, poor fit] |  |
| CC(C)C[C@H](NC(=O)N1CCn2c1nc1ccccc12)C(=O)N[C@@H](Cc1ccccc1)C(=O)O | inconclusive [activator, single point] |  |
| CC1CCc2c(sc3nc(CSc4ncn[nH]4)[nH]c(=O)c23)C1 (stereo not given) | inconclusive [activator, partial curve] |  |
| O=S1(=O)C=C(SCc2cccc(Cl)c2)Nc2ccccc21 |  | inactive: 3.58% |
